Data: article PMC7665892, “Homology-guided identification of a conserved motif linking the antiviral functions of IFITM3 to its oligomeric state” (eLife, 2020)

Legend:
[1] = target: the molecule itself; test: native gel or EMSA; blue native PAGE (4-16% Bis-Tris) of lysates of transfected HEK293T made with 1% digitonin; immunoblot with anti-FLAG
[2] = target: the molecule itself; test: co-IP; HEK293T co-transfected with FLAG- and myc-tagged copies; lysis in 0.5% IPEGAL, 50 mM Tris pH 7.4, 150 mM NaCl, 1 mM EDTA; anti-FLAG M2 magnetic beads, 3 hr, 4°C; quantitative immunoblot with anti-myc
[3] = target: the molecule itself; test: FRET or BRET; FRET index and FLIM of the donor YFP in living HEK293T cells transiently co-transfected with a YFP-tagged and an mCherry-tagged copy; free mCherry with the YFP copy as background; Fluorobrite DMEM

B1: IFITM3 G95L fused with amino-terminal FLAG or myc (natural protein)
chain: not shown
notes: interferon-induced transmembrane protein 3 (IFITM3), human, with G95L; Two differently tagged copies, each with only one of the two tags; Blue native PAGE used the FLAG copy alone; also called G95L-FLAG; G95L-myc; source: HEK293T, transiently transfected, in lysate; not shown: FLAG (on the bait copy), N-terminal, kept; myc (on the prey copy), N-terminal, kept
B1 was tested, and the “decrease of the 480 kilodalton oligomer relative to WT” value [1] was roughly 50% and the “decrease of co-immunoprecipitation relative to WT” value [2] was roughly 50%.

B2: IFITM3 G91L fused with YFP or mCherry at the amino terminus (natural protein)
chain: not shown
notes: interferon-induced transmembrane protein 3 (IFITM3), human, with G91L; Two differently tagged copies, each with only one of the two fluorescent proteins; also called G91L-YFP; G91L-mCherry; source: HEK293T, transiently transfected, in living cells; not shown: YFP (on the donor copy), N-terminal, kept; mCherry (on the acceptor copy), N-terminal, kept
In the case of B2, the “decrease in YFP (donor) lifetime” value [3] is reported as roughly 225 picoseconds.

B3: IFITM3 G95L fused with YFP or mCherry at the amino terminus (natural protein)
chain: not shown
notes: interferon-induced transmembrane protein 3 (IFITM3), human, with G95L; Two differently tagged copies, each with only one of the two fluorescent proteins; Number and Brightness analysis used the mCherry copy alone; also called G95L-YFP; G95L-mCherry; source: HEK293T, transiently transfected, in living cells; not shown: YFP (on the donor copy), N-terminal, kept; mCherry (on the acceptor copy), …
B3 was tested, and the “decrease in YFP (donor) lifetime” value [3] was roughly 70 picoseconds.
